Measured values taken from patent publication US8759392B2, “Amides as inhibitors of human secreted phospholipase A2” (The Regents of the University of California, priority 2008, dated 2014).

Test system: spinal cord injury (SCI)
Experiment: Spinal cord injury (SCI) in mice
Description: FIG. 3 illustrates the assessment of locomotor recovery after SCI.
FIG. 4 illustrates the quantification of tissue and myelin sparing assessed by staining for GFAP and luxol fast blue, respectively, at 28 days after SCI.
FIG. 5 illustrates the quantification of serotonergic fiber sparing and neuronal survival at 28 after SCI.

Compound: CCCC[C@H](CCC(=O)O)NC(=O)CCCCCCc1ccccc1 [Compound 9, (R)-4-(7-phenylheptanamido)octanoic acid]
- Neuronal survival (28 after SCI, sections at 500 μm rostral and caudal to the lesion epicenter): promoted greater neuron survival
- Serotonergic fiber sparing (28 after SCI, ventral horns 1 mm caudal to the lesion epicenter): significantly greater serotonergic sparing
- Tissue loss (GFAP staining) (28 days after SCI, sections at 100 μm rostral and caudal to the lesion epicenter): significant reduction tissue loss
- Fine locomotor skills, BMS subscores (day 10 to 28 after SCI, p<0.05): significant improvement
